# Measured values as given in the supplement of paper PMC12297408.
# Structures can show the parent of a compound that is named as a salt. Out of some 1,300 compounds screened, about 40 (3%) showed activity. The list shows a part of the results.
# Test system: Plasmodium falciparum NF54/iGP1_RE9H ulg8 stage V gametocytes
# Assay: gametocyte viability (luciferase signal relative to DMSO control) (% of DMSO control); higher = less gametocytocidal activity, active = 50 or less
# Details: exposure time: 72 h
# Procedure, shortened: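 Gametocyte viability is reported relative to the average of DMSO vehicle wells on the same plate. The assay used day-12 stage V NF54/iGP1_RE9Hulg8 gametocytes at ~2.5% gametocytemia and 3% hematocrit, in 0.5% Albumax II medium, added to 96-well plates of compounds spotted in nanolitre volumes for final 10 µM or 1 µM, one well each. After 72 h at 37 °C, 90 µl was mixed with 10 µl D-luciferin (30 mg/ml), and luminescence was recorded with an IVIS Lumina II.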
Compound,gametocyte viability (concentration: 1 µM),gametocyte viability (concentration: 10 µM)
COc1ccc(C(=O)c2ccccc2)c(O)c1 [Oxybenzone],inactive: 89.3,inactive: 84.8
COc1ncnc(NS(=O)(=O)c2ccc(N)cc2)c1OC [Sulfadoxine],inactive: 96.5,inactive: 92.9
CC(=O)OCC(=O)[C@@]1(O)[C@H](C)C[C@H]2[C@@H]3CCC4=CC(=O)C=C[C@]4(C)[C@@]3(F)[C@@H](O)C[C@@]21C [Dexamethasone acetate],inactive: 83.3,inactive: 84.6
COc1ccc(C(=O)CC(=O)c2ccc(C(C)(C)C)cc2)cc1 [Avobenzone],inactive: 80.5,inactive: 78.8
OC(c1cc(C(F)(F)F)nc2c(C(F)(F)F)cccc12)C1CCCCN1 (centres undefined) [Mefloquine hydrochloride],inactive: 83.9,inactive: 78
CNCCCC12CCC(c3ccccc31)c1ccccc12 [Maprotiline hydrochloride],inactive: 90.7,inactive: 79.7
C[C@@H]1C[C@H]2[C@@H]3C[C@H](F)C4=CC(=O)C=C[C@]4(C)[C@@]3(Cl)[C@@H](O)C[C@]2(C)[C@H]1C(=O)COC(=O)C(C)(C)C [Clocortolone pivalate],inactive: 86.8,inactive: 82.4
C[C@@H](O)[C@H]1C(=O)N2C(C(=O)O)=C(S[C@@H]3CN[C@H](C(=O)N(C)C)C3)[C@H](C)[C@H]12 [Meropenem],inactive: 80.4,inactive: 79.3
CC(=O)O[C@H]1C[C@@H]2CC[C@@H]3[C@H](CC[C@@]4(C)[C@H]3C[C@H]([N+]3(C)CCCCC3)[C@@H]4OC(C)=O)[C@@]2(C)C[C@@H]1N1CCCCC1 [Vecuronium bromide],inactive: 85.2,inactive: 93.1
CC1(C)O[C@@H]2C[C@H]3[C@@H]4CCC5=CC(=O)CC[C@]5(C)[C@@]4(F)[C@@H](O)C[C@]3(C)[C@]2(C(=O)CCl)O1 [Halcinonide],inactive: 88.3,inactive: 76.8
C[C@]12C=CC(=O)C=C1CC[C@H]1[C@@H]3C[C@@H](O)[C@](O)(C(=O)CO)[C@@]3(C)C[C@H](O)[C@@]12F [Triamcinolone],inactive: 91.2,inactive: 88.2
CCN(CC)C(=O)/C(C#N)=C/c1cc(O)c(O)c([N+](=O)[O-])c1 [Entacapone],inactive: 86.2,inactive: 90.1
CN(C/C=C/c1ccccc1)Cc1cccc2ccccc12 [Naftifine hydrochloride],inactive: 83.3,inactive: 79.5
CC(=O)CCCCn1c(=O)c2c(ncn2C)n(C)c1=O [Pentoxifylline],inactive: 82.3,inactive: 83.7
CN1C(=O)OC(C)(C)C1=O [Trimethadione],inactive: 82.9,inactive: 88.6
OCCN1CCN(CCCN2c3ccccc3C=Cc3ccccc32)CC1 [Opipramol dihydrochloride],inactive: 90.6,inactive: 98.5
CC(C)NC[C@H](O)COc1cccc2ccccc12 [(S)-propranolol hydrochloride],inactive: 86.8,inactive: 87.3
NS(=O)(=O)c1cc(Cl)c(Cl)c(S(N)(=O)=O)c1 [Dichlorphenamide],inactive: 99.1,inactive: 97.8
CCCCCNC(=N)N/N=C/c1c[nH]c2ccc(OC)cc12 [Tegaserod maleate],inactive: 88.4,active: 6.12

Compound,gametocyte viability (concentration: 1 µM),gametocyte viability (concentration: 10 µM)
CCN1CCCC(OC(=O)C(c2ccccc2)c2ccccc2)C1 (centres undefined) [Piperidolate hydrochloride],inactive: 82.8,inactive: 86.5
C[C@H](Cc1cc2c(c(C(N)=O)c1)N(CCCO)CC2)NCCOc1ccccc1OCC(F)(F)F [Silodosin],inactive: 84.5,inactive: 84
Cc1onc(-c2c(F)cccc2Cl)c1C(=O)N[C@@H]1C(=O)N2[C@@H]1SC(C)(C)[C@@H]2C(=O)O [Flucloxacillin sodium],inactive: 90.2,inactive: 87.3
CN(C)CCCSC(=N)N [Dimaprit dihydrochloride],inactive: 91.2,inactive: 89.9
O=C(NCCN1CCOCC1)c1ccc(Cl)cc1 [Moclobemide],inactive: 84.9,inactive: 86.1
N=C(N)NCc1cccc(I)c1 [Iobenguane sulfate],inactive: 99.3,inactive: 100
NC(=O)OCC(COC(N)=O)c1ccccc1 [Felbamate],inactive: 81.3,inactive: 83.8
C[C@H]1NC(=O)NC1=O [Methylhydantoin-5-(D)],inactive: 88.5,inactive: 88.5
Cc1ccnc(NS(=O)(=O)c2ccc(N)cc2)n1 [Sulfamerazine],inactive: 88.8,inactive: 88.3
CNC[C@H](O)[C@@H](O)[C@H](O)[C@H](O)CO [Meglumine],inactive: 89.7,inactive: 82.4
Nc1ccc(S(=O)(=O)Nc2cnc3ccccc3n2)cc1 [Sulfaquinoxaline sodium salt],inactive: 91.2,inactive: 84.6
NCCCC(O)(P(=O)(O)O)P(=O)(O)O [Alendronate sodium],inactive: 78.2,inactive: 80
CCCCNc1cc(C(=O)O)cc(S(N)(=O)=O)c1Oc1ccccc1 [Bumetanide],inactive: 92.3,inactive: 92.1
CNC(=O)c1c(I)c(C(=O)NCC(=O)Nc2c(I)c(C(=O)O)c(I)c(C(=O)NCCO)c2I)c(I)c(N(C)C(C)=O)c1I [Ioxaglic acid],inactive: 83.2,inactive: 87.8
CC(=O)Oc1ccccc1C(=O)Oc1ccccc1C(=O)O [Acetylsalicylsalicylic acid],inactive: 97.3,inactive: 94.6
CC(C)n1c(/C=C/C(O)CC(O)CC(=O)O)c(-c2ccc(F)cc2)c2ccccc21 (centres undefined) [Fluvastatin sodium salt],inactive: 89.5,inactive: 91.9
CCN(CC)CCOC(=O)c1ccc(N)cc1 [Procaine hydrochloride],inactive: 99.1,inactive: 94.8
Cc1c(C)c2c(c(C)c1O)CCC(C)(C(=O)O)O2 (centres undefined) [Trolox],inactive: 88.2,inactive: 87.5
